Data taken from PubChem BioAssay AID1159614 (National Center for Advancing Translational Sciences (NCATS), 2016).
Among all 45,000 compounds or so, about 65 (0.1%) were called active. Calls follow the shape of the dose curve; as a rule, active = well fitted activation curve with a large enough effect; inconclusive = small, poorly fitted or top-dose-only effect; inactive = no such curve, though single readings can be large or run the other way. The list shows a part of the results.

Molecular target: Galactocerebrosidase (Homo sapiens) (UniProt P54803)
Sequence of UniProt P54803 (P54803 whole entry, looked up): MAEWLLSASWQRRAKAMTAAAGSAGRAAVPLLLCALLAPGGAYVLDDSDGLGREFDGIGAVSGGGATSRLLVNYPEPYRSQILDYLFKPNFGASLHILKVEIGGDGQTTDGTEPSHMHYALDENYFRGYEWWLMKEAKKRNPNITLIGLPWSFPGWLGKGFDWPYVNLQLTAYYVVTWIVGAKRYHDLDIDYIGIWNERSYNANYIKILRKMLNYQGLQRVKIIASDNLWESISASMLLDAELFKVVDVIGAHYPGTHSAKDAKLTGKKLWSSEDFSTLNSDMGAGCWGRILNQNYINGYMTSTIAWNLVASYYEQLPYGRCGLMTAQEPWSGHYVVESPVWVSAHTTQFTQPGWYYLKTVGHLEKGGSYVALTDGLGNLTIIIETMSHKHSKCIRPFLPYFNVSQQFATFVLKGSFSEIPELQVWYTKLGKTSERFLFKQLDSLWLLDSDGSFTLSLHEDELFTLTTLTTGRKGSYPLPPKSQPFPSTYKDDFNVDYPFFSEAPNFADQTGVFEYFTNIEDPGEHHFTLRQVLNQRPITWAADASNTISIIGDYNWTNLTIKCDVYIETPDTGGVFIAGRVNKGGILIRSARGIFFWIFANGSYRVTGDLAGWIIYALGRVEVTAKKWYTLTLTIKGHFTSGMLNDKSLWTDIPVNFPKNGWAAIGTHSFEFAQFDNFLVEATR
Test: A Novel Cell-Based Assay to Identify Small Molecules for B -Galactocerebrosidase; also: 0% is about no effect; nearly all actives have a fitted effect of over 65% in size
Conditions: 145M-Twi-hGALC-G270D cells (Twitcher mouse brain line with human GALC G270D), HMU-beta-Gal fluorescence, 48 h; series mostly up to 57.5 µM; activation: at the top concentration
How it was run: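 Fluorescence readout: HMU-β-gal cleavage by mutant GALC (0.1 mM final, citrate/phosphate pH 5.2 with 1 mg/mL taurocholate), stopped with carbonate/bicarbonate plus Triton X-100. Cells: murine Twitcher 145M-Twi expressing human G270D GALC; qHTS for activators.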

activation, inactive:
Cn1c2ccc(F)cc2c2nnc(SCCN3CCCCC3)nc21 8.94%, CCOc1ccccc1N(CC)C(=O)c1cc2ccc3cccnc3c2[nH]1 -8.67%, CC(C)NC(=O)c1sc2ncccc2c1-n1cccc1 -20.1%, CCOc1ccccc1NC(=O)CN1C(=O)C(=O)c2ccccc21 -16.9%, Cc1ccc2nc(NC(=O)CSc3ncc(C(=O)Nc4ccccc4)c(=O)n3C)sc2c1 -13.8%, Cc1ccc(N2C(=O)C(CC(=O)Nc3ccccc3)N(CCC3=CCCCC3)C2=O)cc1 (stereo not given) -35.3%, O=C(NCCCN1CCN(c2cccc(Cl)c2)CC1)c1nnc(Cc2ccc(F)cc2Cl)o1 -5.78%, CCc1ccc(S(=O)(=O)c2cnc(SCC(=O)Nc3ccc(OC)cc3OC)[nH]c2=O)cc1 -10.2%, Cc1sc2c(c1C)c(=O)n(Cc1ccccc1)c(=O)n2CC(=O)Nc1cccc(Cl)c1 -30.8%, O=C(O)Cn1nc(N2CCN(c3ccccc3)CC2)ccc1=O -8.67%, CCOc1ccc(CCNC(=O)c2sc3nc4n(c(=O)c3c2C)CCCC4)cc1 -14.9%, Cc1nn2c(=O)cc(COC(=O)COc3ccccc3C)nc2s1 -9.56%, O=C(O)C1=CC(c2ccc(Br)cc2)n2ncnc2N1 (stereo not given) 24.2%, CCOC(=O)Cn1cnc2c(cnn2-c2ccc(C)c(C)c2)c1=O -3.49%, COc1ccc(NC(=O)c2nc(S(=O)(=O)Cc3ccc(C)cc3)ncc2Cl)cc1 -17.1%, CC1CCC(NC(=O)CCc2cn(Cc3ccc(F)cc3)c3ccccc23)CC1 (stereo not given) -0.875%, Cc1ccccc1C(=O)NCc1ccc2c(c1)CCN2C(=O)c1ccc(F)cc1 -13.9%, COc1cc2c(cc1OC)C(COc1ccc(C(C)C)cc1)N(C(=O)COc1ccccc1)CC2 (stereo not given) -19.1%, COc1ccccc1NC(=O)C1CCN(c2ncnc3c2nc2n3CCCCC2)CC1 -10.9%, COc1ccc(N2CC(NC(=O)c3ccc(S(=O)(=O)N4CCOCC4)cc3)CC2=O)cc1 (stereo not given) 3.54%, CCOC(=O)CSc1ncnc2c1c(-c1ccccc1)cn2-c1ccc(OC)cc1 -6.72%, CCS(=O)(=O)c1nc(S(=O)(=O)c2ccc(C)cc2)c(NCc2ccccc2Cl)s1 -12.6%, CCOC(=O)[C@H](CCc1ccccc1)N[C@@H](C)C(=O)N1Cc2ccccc2C[C@H]1C(=O)O -11.9%, CCOc1ccc(C(=O)c2cn(CC(=O)Nc3ccc(C)c(C)c3)c3ccc(OCC)cc3c2=O)cc1 -15.1%, CCOc1ccc(Nc2nc(Nc3ccc(OCC)cc3)nc(N3CCOCC3)n2)cc1 -14.9%, COc1ccc(CCNC(=O)CCCn2c(=O)c3cccn3c3ccc(F)cc32)cc1OC -10.9%, COc1ccc(OCC(=O)N2CCN(C(=O)c3ccc(OC)cc3)CC2)cc1 -3.65%, COc1cccc(NC(=O)c2oc3ccccc3c2NC(=O)Cc2cccc(C)c2)c1 -15.2%, COC(=O)c1ccc(Cl)cc1NC(=O)N1CCC(CN2CCC(C)CC2)CC1 -3.67%, CCc1cccc(NC(=O)c2coc(=O)c3ccccc23)c1 6.52%, Cc1cn2c(=O)cc(COC(=O)C(C)Oc3ccccc3)nc2s1 (stereo not given) -5.16%, Cc1ccc(C)c(CN2C(=O)C(O)(c3c[nH]c4ccccc34)c3ccccc32)c1 (stereo not given) -32.2%, O=C(COc1ccc(Br)cc1)Nc1cccc2cccnc12 -26.1%, COC(=O)CN1C(=O)C(C)(C)c2cc(S(=O)(=O)Nc3ccc(C(C)C)cc3)ccc21 -17.6%, Cc1ccccc1OCC(=O)N(Cc1ccc(C(C)C)cc1)C1CCS(=O)(=O)C1 (stereo not given) -18.7%, O=C(NCc1ccc(Cl)cc1)c1cc(-c2ccc(F)cc2)on1 -3.09%, CCc1ccc(-n2nc(CO)c(C(=O)NCCCCc3ccccc3)n2)cc1 1.2%, CCc1cccc(C)c1NS(=O)(=O)c1ccc(-n2cccn2)cc1 -12.3%, COc1ccc(-c2nn(-c3ccc(F)cc3F)c3c2cnc2ccc(F)cc23)cc1 -9.48%, CC(=O)N1CCCc2cc(S(=O)(=O)NCc3ccc(OC(C)C)cc3)ccc21 -14%, COc1ccc(C(=O)Nc2ccc(-c3cc(C(F)(F)F)nn3-c3ccccc3)cc2)cc1OC -27.2%, CC(NC(=O)c1cc2sccc2n1Cc1ccc(F)cc1)c1ccccc1 (stereo not given) -17.7%, CCOc1ccc(-c2nonc2NC(=O)c2oc3cc(Br)ccc3c2C)cc1 -27.7%, CCOc1ccc(C(=O)Nc2ccc3nc(SCC(=O)N4CCOCC4)sc3c2)cc1 3.98%, Cc1ccc(OCC(=O)Nc2ccc(-c3nc4ccc(C)cc4o3)cc2)cc1 -14.1%, CCN1CCN(C(=O)c2ccc3c(c2)N(Cc2cc(C)ccc2C)C(=O)c2ccccc2S3(=O)=O)CC1 -8.9%, Cc1cccc(C(=O)Nc2cccc(C(=O)OCc3cc(=O)n4nc(C5CC5)sc4n3)c2)c1 -8.27%, N#Cc1ccccc1NC(=O)C(=O)NCC(c1cccnc1)N1CCN(c2ccccc2)CC1 (stereo not given) -4.62%, Cc1cc(NC(=O)CN(c2cccc(C)c2C)S(=O)(=O)c2ccccc2)ccc1Br -15.8%, O=C(Nc1ccc(F)cc1F)C1CCCN1S(=O)(=O)c1cccc2nsnc12 (stereo not given) -12.1%, COc1ccc(CCC(=O)NCc2ccc3c(c2)CCN3C(=O)c2cccc(C)c2)cc1 -8.69%, CCCOc1ccc(CNC(=O)C2CCN(c3nn4c(=O)cc(C)nc4s3)CC2)cc1 -7.24%, CCOC(=O)c1c(C)oc2nc(C)nc(NCCc3ccc(S(N)(=O)=O)cc3)c12 -12.9%, O=C(NCCc1ccccc1)c1cnc2sc(N3CCOCC3)nn2c1=O -18%, CCOc1ccccc1Nc1ccc2cc(S(=O)(=O)N3CCCCC3)ccc2n1 -23.9%, CCCSCCCNC(=O)CN1C(=O)COc2ccc(S(=O)(=O)N3CCCCCC3)cc21 1.01%, Cc1cccc(-c2nnc(SCCC(=O)O)o2)c1 19%, CCOC(=O)c1[nH]c(C)c(C(=O)NCc2ccc(F)cc2)c1C -16.9%, COc1cc(CNCCSc2nnnn2C)ccc1OCc1c(F)cccc1Cl -11.4%, O=[N+]([O-])c1ccc(C(c2sc3nc(-c4ccco4)nn3c2O)N2CCC3(CC2)OCCO3)cc1 (stereo not given) -8.34%, CC(C)c1ccc(OCC(=O)Nc2cc(-c3nc4ncccc4o3)ccc2Cl)cc1 4.09%, O=C(O)c1cccnc1Nc1cccc(C(F)(F)F)c1 -11.6%, COc1ccccc1CNC(=O)C(C)n1c(=O)cc(C(F)(F)F)c2c(C)nn(C)c21 (stereo not given) -18.3%, Cc1cccc(NC(=O)CN2C(=O)CCc3ccccc32)c1C -8.51%, CCOc1ccc(CCNC(=O)c2cnc3c(-c4ccccc4)c(C)nn3c2C)cc1OCC -20.8%, CCc1ccc(CNC(=O)C2CCN(c3nnc(-n4c(C)ccc4C)s3)CC2)cc1 -36.1%, COc1ccc(N2CCN(c3oc(/C=C/c4cccc(OC)c4)nc3C#N)CC2)cc1 -15.3%, CCCCC(=O)Nc1ccc(OCc2cc(=O)n3ccc(C)cc3n2)cc1 -10.8%, O=c1[nH]c2cc(C(F)(F)F)c(N3CCOCC3)cc2n(CP(=O)(O)O)c1=O -14.3%, COc1ccc(C(Cl)=C(c2ccc(OC)cc2)c2ccc(OC)cc2)cc1 -1.85%, CCCCN(CCCC)c1nc(-c2ccccc2)nc2ccccc12 2.91%, COc1cc(C2CC(=O)Nc3cc4c(cc32)OCCO4)cc(OC)c1O (stereo not given) -5.29%, Nc1ccn(C2CO[C@H](CO)O2)c(=O)n1 (stereo not given in full) 5.69%, COc1ccc(NC(=O)C2CCCN2S(=O)(=O)c2ccc3c(c2)CCCC(=O)N3)cc1Cl (stereo not given) 1.67%, CCOC(=O)c1c(N)sc2c1CCN(Cc1ccccc1)C2 -5.24%, Cc1oc(-c2cccc(Cl)c2)nc1CSCC(=O)O -19.1%, CCC(=O)Nc1ccc(C)cc1-c1nc2ccccc2n(Cc2ccccc2)c1=O -4.84%, CCN(C(=O)c1cc2c(Cl)nc3ccc(C)cc3c2s1)c1cc(OC)ccc1OC -10.5%, COc1ccccc1C(=O)Nc1c(C(=O)Nc2ccc(C)cc2)oc2ccccc12 2.64%, CC(=O)Oc1ccc2c(c1)CC[C@@H]1[C@@H]2CC[C@]2(C)[C@@H](O)CC[C@@H]12 -12.6%, CC1(c2ccccc2)CC(C)(C)N(C(=O)c2ccccc2Cl)c2ccccc21 (stereo not given) -8.39%, O=C(Nc1ccc2nn(-c3ccc(Cl)cc3)nc2c1)c1cc2ccccc2o1 -10.7%, Cc1ccccc1Nc1c(-c2ccc(N3CCOCC3)cc2)nc2ccc(Cl)cn12 -10.1%, Cc1ccccc1NC(=O)c1c(NC(=O)c2cccs2)sc2c1CCC(C)C2 (stereo not given) -6.09%, N#Cc1nc(/C=C/c2ccc(F)cc2)oc1NC1CCCCC1 -0.726%, COc1ccc(C(=O)NCC(c2ccco2)S(=O)(=O)c2cccs2)cc1 (stereo not given) -18.3%, Cc1cccc(NC(=O)c2c(N)sc3c2CCC(C)C3)c1 (stereo not given) -19.2%, CCc1cccc(C)c1NS(=O)(=O)c1ccc(-c2cc(C)no2)s1 -11.9%, COc1ccc(-c2cccc(NS(=O)(=O)c3cc(C)ccc3OC)c2)nn1 -44.2%, Cc1c(F)cc2c(=O)c(C(=O)O)cn3c2c1CCC3C (stereo not given) -22.3%, CCOC(=O)c1cc(-c2ccccc2)n(CCC(=O)NCCc2ccc(OC)c(OC)c2)c1C -13%, COc1ccc(-c2nc3cc(NC(=O)c4cc5ccccc5o4)ccc3o2)cc1 -9.7%, COc1ccc(N(C)C(=O)C2CCN(S(=O)(=O)c3cc(Br)cc4c3N(C(C)=O)CC4)CC2)cc1 8.46%, Cc1ccc(OCc2cc(=O)n3ccsc3n2)c(NC(=O)c2ccco2)c1 2.69%, Cc1cccc(OCC(=O)Nc2ccccc2OCc2cc(=O)n3cc(C)ccc3n2)c1 1.8%, O=C(Nc1ccc2nc(SCC(=O)N3CCOCC3)sc2c1)c1ccccc1Cl -1.42%, CCn1ccc2cc(S(=O)(=O)N3CCC(C(=O)NCc4ccc(F)cc4)CC3)ccc21 -10.1%, Cc1ccc(NCc2cccn2-c2nnc(N3CCC(C(=O)NCc4ccc(F)cc4)CC3)s2)cc1 -30.3%, Cc1ccn2c(Nc3ccccc3C)c(-c3ccccc3)nc2c1 -7.63%, COc1cccc(NC(=O)Cn2c(=O)n(Cc3ccco3)c(=O)c3cc(OC)c(OC)cc32)c1 -12.4%
